{"source": "paper PMC4336329", "about": "(PLoS ONE, 2015)", "note": "The campaign covered roughly 310,000 compounds. About 2,200 (0.71%) showed an effect of 50% or more. The effect is printed as a negative number. This is one part of the list.", "data": [{"target": "human ether-à-go-go-related gene (hERG) potassium channel (human, UniProt Q12809)", "sequence (Q12809 whole entry, looked up)": "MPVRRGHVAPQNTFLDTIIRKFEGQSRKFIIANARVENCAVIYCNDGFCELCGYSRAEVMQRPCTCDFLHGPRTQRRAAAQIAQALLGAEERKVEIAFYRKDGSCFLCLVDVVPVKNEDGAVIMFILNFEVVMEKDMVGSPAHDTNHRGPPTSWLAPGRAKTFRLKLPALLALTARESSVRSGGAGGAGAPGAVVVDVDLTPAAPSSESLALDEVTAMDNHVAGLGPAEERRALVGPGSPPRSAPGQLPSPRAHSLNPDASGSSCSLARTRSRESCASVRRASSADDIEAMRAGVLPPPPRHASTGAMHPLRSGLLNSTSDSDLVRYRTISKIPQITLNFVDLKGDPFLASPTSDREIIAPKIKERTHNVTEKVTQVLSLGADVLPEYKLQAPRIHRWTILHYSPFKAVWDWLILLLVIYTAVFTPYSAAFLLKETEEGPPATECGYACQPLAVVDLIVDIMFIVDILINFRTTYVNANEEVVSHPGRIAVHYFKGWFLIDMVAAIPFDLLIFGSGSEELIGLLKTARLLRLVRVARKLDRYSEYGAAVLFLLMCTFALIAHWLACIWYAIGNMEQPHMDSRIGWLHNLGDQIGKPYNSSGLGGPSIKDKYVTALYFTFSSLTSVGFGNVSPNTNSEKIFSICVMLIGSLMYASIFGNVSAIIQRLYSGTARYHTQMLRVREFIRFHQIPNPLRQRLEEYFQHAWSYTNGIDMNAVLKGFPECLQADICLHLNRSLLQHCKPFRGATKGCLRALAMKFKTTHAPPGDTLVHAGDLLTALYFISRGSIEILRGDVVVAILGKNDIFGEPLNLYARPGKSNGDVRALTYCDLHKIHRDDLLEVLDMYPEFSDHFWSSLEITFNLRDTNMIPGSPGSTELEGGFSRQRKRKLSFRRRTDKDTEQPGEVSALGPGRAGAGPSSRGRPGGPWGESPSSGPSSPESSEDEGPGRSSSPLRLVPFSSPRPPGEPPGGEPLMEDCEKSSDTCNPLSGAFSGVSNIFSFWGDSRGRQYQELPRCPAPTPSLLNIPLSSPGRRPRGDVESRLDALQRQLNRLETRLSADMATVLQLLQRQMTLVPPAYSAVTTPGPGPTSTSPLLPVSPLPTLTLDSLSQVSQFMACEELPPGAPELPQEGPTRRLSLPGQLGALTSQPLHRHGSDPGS", "test": "primary screen, population patch clamp on CHO cells stably expressing hERG", "units": {"hERG current change (%, negative = inhibition) at 1uM": "%"}, "values": [{"compound": "CC(=O)c1ccc(N2CCN(C3CCC(C(C)(C)C)CC3)CC2)cc1", "note": "(stereo not drawn)", "hERG current change (%, negative = inhibition) at 1uM": 10.8}, {"compound": "CCSCc1nnc(SCC(=O)Nc2ccc(F)cc2)n1CC", "hERG current change (%, negative = inhibition) at 1uM": 7.2}, {"compound": "CCOC(=O)c1cc(-c2cccs2)[nH]n1", "hERG current change (%, negative = inhibition) at 1uM": 9.5}, {"compound": "O=[N+]([O-])c1ccc(CN2CCN(c3ccccc3)CC2)o1", "hERG current change (%, negative = inhibition) at 1uM": 9.21}, {"compound": "NC(=O)c1cc(-c2csc(NCCc3ccccc3)n2)ccc1O", "hERG current change (%, negative = inhibition) at 1uM": 14.1}, {"compound": "CCC1=C(OC(=O)N(CC)CC)N2C(=O)OC(=NCCc3c[nH]c4ccccc34)[C@]2(Cc2ccccc2)[C@H]2C1=CC[C@H]1C(=O)N(C)C(=O)[C@H]12", "hERG current change (%, negative = inhibition) at 1uM": 14.8}, {"compound": "Cc1ccc(S(=O)(=O)N2CCOC2CNC(=O)C(=O)NCCN(C)C)cc1", "note": "(stereo not drawn)", "hERG current change (%, negative = inhibition) at 1uM": 7.39}, {"compound": "Cc1c(C(Nc2ccccn2)c2ccc(Cl)cc2)c(=O)n(-c2ccccc2)n1C", "note": "(stereo not drawn)", "hERG current change (%, negative = inhibition) at 1uM": 9.5}, {"compound": "O=C1CC(SC2=NCCS2)C(=O)N1c1ccc(Br)cc1", "note": "(stereo not drawn)", "hERG current change (%, negative = inhibition) at 1uM": 10.5}, {"compound": "CCOC(=O)c1cc(-c2ccccc2)n(Cc2cc(CC)no2)n1", "hERG current change (%, negative = inhibition) at 1uM": 13.7}, {"compound": "Clc1ccc(/C=N/Nc2nn[nH]n2)cc1", "hERG current change (%, negative = inhibition) at 1uM": 11.1}, {"compound": "COc1ccccc1NC(=O)COC(=O)CC(C)(C)CC1=NS(=O)(=O)c2ccccc2N1", "hERG current change (%, negative = inhibition) at 1uM": -44.2}, {"compound": "Clc1ccc(Nc2ccc(NCc3ccccc3)nn2)cc1", "hERG current change (%, negative = inhibition) at 1uM": 1.26}, {"compound": "CC(=O)c1cccc2c(O)c(C3=Nc4ccccc4C3=O)[nH]c12", "hERG current change (%, negative = inhibition) at 1uM": 3.06}, {"compound": "COc1ccc(Cl)cc1NC(=O)CN(C)CC(=O)NCc1cccs1", "hERG current change (%, negative = inhibition) at 1uM": 5.81}, {"compound": "COCc1cc(C)nc(SCc2ccccc2)c1C#N", "hERG current change (%, negative = inhibition) at 1uM": 15.3}, {"compound": "CC(=O)c1cccc(N(C(=O)CNC(=O)c2cccs2)C(C(=O)NCC2CCCO2)c2ccccc2)c1", "note": "(stereo not drawn)", "hERG current change (%, negative = inhibition) at 1uM": 13.3}, {"compound": "Cc1c(NC(=O)NCCN2C(=O)C3C4C=CC(C4)C3C2=O)c(=O)n(-c2ccccc2)n1C", "note": "(stereo not drawn)", "hERG current change (%, negative = inhibition) at 1uM": 14.1}, {"compound": "O=C(O)c1cccc(NC(=O)C2C3C=CC(C3)C2C(=O)O)c1", "note": "(stereo not drawn)", "hERG current change (%, negative = inhibition) at 1uM": 23.8}, {"compound": "Nc1cc(=O)[nH]c(SCCSc2cc(Cl)ccc2Cl)n1", "hERG current change (%, negative = inhibition) at 1uM": 7.22}, {"compound": "CC(C)c1nc(SCC(=O)Nc2cccc(S(N)(=O)=O)c2)n[nH]1", "hERG current change (%, negative = inhibition) at 1uM": 12.4}, {"compound": "CC1CCCCC1NC(=O)CN1CCC(NC(=O)c2cccc(F)c2)CC1", "note": "(stereo not drawn)", "hERG current change (%, negative = inhibition) at 1uM": 8.19}, {"compound": "CC(C(=O)NCc1ccc(Cl)cc1)n1cccc1C(=O)c1ccccc1", "note": "(stereo not drawn)", "hERG current change (%, negative = inhibition) at 1uM": 9.15}, {"compound": "C[C@@H]1NC(=O)c2cc([N+](=O)[O-])cc(F)c2NCCC[C@@H](C(N)=O)NC(=O)[C@H](CC(N)=O)NC1=O", "hERG current change (%, negative = inhibition) at 1uM": 25.7}, {"compound": "CCOC(=O)CSc1nc2c(c(=O)[nH]c(=O)n2C)n1CCc1ccccc1", "hERG current change (%, negative = inhibition) at 1uM": 4.16}, {"compound": "Cc1ccc2nc(CSc3nnc(-c4ccco4)o3)cc(=O)n2c1", "hERG current change (%, negative = inhibition) at 1uM": -54}, {"compound": "COc1cccc(COC(=O)c2nn(-c3ccccc3)nc2N)c1", "hERG current change (%, negative = inhibition) at 1uM": 4.72}, {"compound": "COc1ccc(OC)c(NC(=S)N2CCN(Cc3ccccc3)CC2)c1", "hERG current change (%, negative = inhibition) at 1uM": 15.3}, {"compound": "CCOC(=O)C1CSc2[nH]c(=O)sc2C1c1ccccc1", "note": "(stereo not drawn)", "hERG current change (%, negative = inhibition) at 1uM": -8.94}, {"compound": "c1cnc(SCCOc2ccc3c(c2)CCC3)nc1", "hERG current change (%, negative = inhibition) at 1uM": 12.3}, {"compound": "COc1ccc(C(CC(=O)O)NC(=O)c2cccs2)cc1", "note": "(stereo not drawn)", "hERG current change (%, negative = inhibition) at 1uM": 7.83}, {"compound": "OC1(CC#CCN2CCCCC2)c2ccccc2-c2ccccc21", "hERG current change (%, negative = inhibition) at 1uM": 4.27}, {"compound": "C=C(C)C1CC=C(C)/C(=N/NC(=O)c2cccc([N+](=O)[O-])c2)C1", "note": "(stereo not drawn)", "hERG current change (%, negative = inhibition) at 1uM": 14.9}, {"compound": "COc1ccc(C(CNC(=O)C(CCSC)NC(=O)c2ccccc2Cl)N2CCCC2)cc1", "note": "(stereo not drawn)", "hERG current change (%, negative = inhibition) at 1uM": 12.7}, {"compound": "COC(=O)c1ccc(NC(=O)Cc2ccc(C)cc2)cc1", "hERG current change (%, negative = inhibition) at 1uM": 16}, {"compound": "CCOc1ccc(NCc2cc3c(C(C)(C)C)nn(-c4ccccc4)c3[nH]c2=O)cc1", "hERG current change (%, negative = inhibition) at 1uM": 10.8}, {"compound": "CC1=C(C(=O)OCCOC(C)C)C(c2cccc3ccccc23)NC(=O)N1", "note": "(stereo not drawn)", "hERG current change (%, negative = inhibition) at 1uM": 12.4}, {"compound": "Cn1c(=O)[nH]c(=O)c2c1nc(N1CCCCCC1)n2CCCSc1nc2ccccc2o1", "hERG current change (%, negative = inhibition) at 1uM": 4.5}, {"compound": "Cc1ccc(N2CCN(S(=O)(=O)c3ccc(F)cc3)CC2)c(C)c1", "hERG current change (%, negative = inhibition) at 1uM": 14.9}, {"compound": "Cc1noc(C)c1CSc1nc2ccccc2[nH]1", "hERG current change (%, negative = inhibition) at 1uM": 9.7}, {"compound": "CCn1cc(C(=O)N2CCCC(N3CCN(c4cccc(C(F)(F)F)c4)CC3)C2)cn1", "note": "(stereo not drawn)", "hERG current change (%, negative = inhibition) at 1uM": 6.11}, {"compound": "O=C(CSc1nc2ccccc2o1)Nc1nc2ccc(Br)cc2s1", "hERG current change (%, negative = inhibition) at 1uM": 5.62}, {"compound": "N#CCCN(CCC#N)C(=O)COc1ccc(Cl)cc1Cl", "hERG current change (%, negative = inhibition) at 1uM": -2.98}, {"compound": "O=c1c2ccccc2c2ccccc2c(=O)n1Cc1ccco1", "hERG current change (%, negative = inhibition) at 1uM": 15.3}, {"compound": "Cc1ccc[n+](/C(=C\\C(=C=[N-])C#N)C(=O)c2ccc(Cl)cc2)c1", "hERG current change (%, negative = inhibition) at 1uM": -1.09}, {"compound": "COc1ccc(S(=O)(=O)NC(C)C(=O)NCc2ccncc2)cc1C", "note": "(stereo not drawn)", "hERG current change (%, negative = inhibition) at 1uM": 17.2}, {"compound": "Cc1nn(CC2CC2)c(=O)n1-c1ccc(C(C)C)cc1", "hERG current change (%, negative = inhibition) at 1uM": 12.2}, {"compound": "CCc1cccc(NS(=O)(=O)c2c(C)[nH]c(=O)[nH]c2=O)c1", "hERG current change (%, negative = inhibition) at 1uM": 14.7}, {"compound": "CCN(C(=O)CN1c2ccccc2CC1C)c1c(N)n(Cc2ccccc2)c(=O)[nH]c1=O", "note": "(stereo not drawn)", "hERG current change (%, negative = inhibition) at 1uM": 13.9}, {"compound": "CCOc1[nH]n(-c2ccccc2)c(=O)c1C=NCc1ccncc1", "hERG current change (%, negative = inhibition) at 1uM": -11.8}, {"compound": "COCCn1c(=NC(=O)c2nc3ccccc3s2)sc2cc(S(C)(=O)=O)ccc21", "hERG current change (%, negative = inhibition) at 1uM": -10.7}, {"compound": "Br.c1ccc(NNC2=NCCS2)cc1", "hERG current change (%, negative = inhibition) at 1uM": 14.2}, {"compound": "CC1(C)CC(N2CCN(Cc3ccccc3)CC2)=CC(=[N+]2CCCCC2)C1.[I-]", "hERG current change (%, negative = inhibition) at 1uM": 8.14}, {"compound": "O=C1CCC(=O)N1OCCCCOc1ccccc1", "hERG current change (%, negative = inhibition) at 1uM": 1.53}, {"compound": "CCc1ccccc1NC(=S)N(Cc1cccnc1)Cc1ccco1", "hERG current change (%, negative = inhibition) at 1uM": 4.57}, {"compound": "COc1cc2c(cc1OC)C(NC(=O)C(F)(F)F)CNC2=O", "note": "(stereo not drawn)", "hERG current change (%, negative = inhibition) at 1uM": 16.2}, {"compound": "COc1ccc(NC(=O)CS(=O)CC(=O)Nc2cccnc2)cc1", "note": "(stereo not drawn)", "hERG current change (%, negative = inhibition) at 1uM": 13.5}]}]}
